# Some of the results follow.
# B1: NKR-PIC (Mus musculus) (protein)
# chain: GTGQKPSREKCCVFIQENLNKTTDCSVNLECPQDWLLHRDKCFHVSQVSNTWEEGQADCGRKGATLLLIQDQEELRFLLDSIKEKYNSFWIGLRFTLPDMNWKWINGTTFNSDVLKITGVTENGSCASILGDKVTPESCASDNRWICQKELNHETPSNDSGT
# Tests used:
# Experiment in all cases: glycan array binding signal (z-score within array); higher = stronger binding
# Conditions in all cases: glycan notation: IUPAC condensed, linker removed
# [1] = target: Gal(b1-3)GlcNAc(b1-6)[Gal(b1-3)]GalNAc
# Procedure, shortened: (§1)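 Glycan array data came from 3228 arrays in the Consortium for Functional Glycomics database, and only arrays with an available protein sequence were kept. Glycan names were put into IUPAC-condensed notation, and columns mapping to the same glycan were averaged. The binding signal is a within-array Z-score, averaged across arrays of one protein sequence run at different concentrations or buffers and across linkers. A negative Z-score can be read as non-binding.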
# [2] = target: Gal(b1-3)GlcNAc6S
# Procedure, shortened: as §1
# [3] = target: Gal(b1-3)[Fuc(a1-4)]GlcNAc
# Procedure, shortened: as §1
# [4] = target: Gal(b1-3)[Fuc(a1-4)]GlcNAc(b1-2)Man
# Procedure, shortened: as §1
# [5] = target: Gal(b1-3)[Fuc(a1-4)]GlcNAc(b1-2)Man(a1-3)[Gal(b1-3)[Fuc(a1-4)]GlcNAc(b1-2)Man(a1-6)]Man(b1-4)GlcNAc(b1-4)[Fuc(a1-6)]GlcNAc
# Procedure, shortened: as §1
# [6] = target: Gal(b1-3)[Fuc(a1-4)]GlcNAc(b1-3)Gal(b1-3)[Fuc(a1-4)]GlcNAc
# Procedure, shortened: as §1
# [7] = target: Gal(b1-3)[Fuc(a1-4)]GlcNAc(b1-3)Gal(b1-4)[Fuc(a1-3)]GlcNAc
# Procedure, shortened: as §1
# [8] = target: Gal(b1-3)[Fuc(a1-4)]GlcNAc(b1-6)GalNAc
# Procedure, shortened: as §1
# [9] = target: Gal(b1-3)[GlcNAc(b1-6)]GalNAc
# Procedure, shortened: as §1
# [10] = target: Gal(b1-3)[Neu5Ac(a2-6)]GalNAc
# Procedure, shortened: as §1
# [11] = target: Gal(b1-3)[Neu5Ac(a2-6)]GlcNAc(b1-4)Gal(b1-4)Glc
# Procedure, shortened: as §1
# [12] = target: Gal(b1-3)[Neu5Ac(b2-6)]GalNAc
# Procedure, shortened: as §1
# [13] = target: Gal(b1-4)Gal
# Procedure, shortened: as §1
# [14] = target: Gal(b1-4)GalNAc(a1-3)[Fuc(a1-2)]Gal(b1-4)GlcNAc
# Procedure, shortened: as §1
# [15] = target: Gal(b1-4)GalNAc(b1-3)[Fuc(a1-2)]Gal(b1-4)GlcNAc
# Procedure, shortened: as §1
# [16] = target: Gal(b1-4)Glc
# Procedure, shortened: as §1
# [17] = target: Gal(b1-4)Glc6S
# Procedure, shortened: as §1
# [18] = target: Gal(b1-4)GlcNAc
# Procedure, shortened: as §1
# [19] = target: Gal(b1-4)GlcNAc(a1-6)Gal(b1-4)GlcNAc
# Procedure, shortened: as §1
# [20] = target: Gal(b1-4)GlcNAc(b1-2)Man
# Procedure, shortened: as §1
# [21] = target: Gal(b1-4)GlcNAc(b1-2)Man(a1-3)Man(b1-4)GlcNAc(b1-4)GlcNAc
# Procedure, shortened: as §1
# [22] = target: Gal(b1-4)GlcNAc(b1-2)Man(a1-3)[Gal(b1-4)GlcNAc(b1-2)Man(a1-6)]Man(b1-4)GlcNAc(b1-4)GlcNAc
# Procedure, shortened: as §1
# [23] = target: Gal(b1-4)GlcNAc(b1-2)Man(a1-3)[Gal(b1-4)GlcNAc(b1-2)Man(a1-6)]Man(b1-4)GlcNAc(b1-4)[Fuc(a1-6)]GlcNAc
# Procedure, shortened: as §1
# [24] = target: Gal(b1-4)GlcNAc(b1-2)Man(a1-3)[Gal(b1-4)GlcNAc(b1-2)Man(a1-6)][Gal(b1-4)GlcNAc(b1-4)]Man(b1-4)GlcNAc(b1-4)[Fuc(a1-6)]GlcNAc
# Procedure, shortened: as §1
# [25] = target: Gal(b1-4)GlcNAc(b1-2)Man(a1-3)[Gal(b1-4)GlcNAc(b1-2)Man(a1-6)][GlcNAc(b1-4)]Man(b1-4)GlcNAc(b1-4)[Fuc(a1-6)]GlcNAc
# Procedure, shortened: as §1
# [26] = target: Gal(b1-4)GlcNAc(b1-2)Man(a1-3)[GlcNAc(b1-2)Man(a1-6)]Man(b1-4)GlcNAc(b1-4)GlcNAc
# Procedure, shortened: as §1
# [27] = target: Gal(b1-4)GlcNAc(b1-2)Man(a1-3)[GlcNAc(b1-4)][Gal(b1-4)GlcNAc(b1-2)Man(a1-6)]Man(b1-4)GlcNAc(b1-4)GlcNAc
# Procedure, shortened: as §1
# [28] = target: Gal(b1-4)GlcNAc(b1-2)Man(a1-3)[Man(a1-6)]Man(b1-4)GlcNAc(b1-4)GlcNAc
# Procedure, shortened: as §1
# [29] = target: Gal(b1-4)GlcNAc(b1-2)Man(a1-6)Man(b1-4)GlcNAc(b1-4)GlcNAc
# Procedure, shortened: as §1
# [30] = target: Gal(b1-4)GlcNAc(b1-2)Man(a1-6)[GlcNAc(b1-2)Man(a1-3)]Man(b1-4)GlcNAc(b1-4)GlcNAc
# Procedure, shortened: as §1
# [31] = target: Gal(b1-4)GlcNAc(b1-2)Man(a1-6)[Man(a1-3)]Man(b1-4)GlcNAc(b1-4)GlcNAc
# Procedure, shortened: as §1
# [32] = target: Gal(b1-4)GlcNAc(b1-2)[Gal(b1-4)GlcNAc(b1-4)]Man(a1-3)[Gal(b1-4)GlcNAc(b1-2)Man(a1-6)]Man(b1-4)GlcNAc(b1-4)GlcNAc
# Procedure, shortened: as §1
# [33] = target: Gal(b1-4)GlcNAc(b1-2)[Gal(b1-4)GlcNAc(b1-4)]Man(a1-3)[Gal(b1-4)GlcNAc(b1-2)[Gal(b1-4)GlcNAc(b1-6)]Man(a1-6)]Man(b1-4)GlcNAc(b1-4)GlcNAc
# Procedure, shortened: as §1
# [34] = target: Gal(b1-4)GlcNAc(b1-2)[Gal(b1-4)GlcNAc(b1-4)]Man(a1-3)[GlcNAc(b1-4)][Gal(b1-4)GlcNAc(b1-2)Man(a1-6)]Man(b1-4)GlcNAc(b1-4)GlcNAc
# Procedure, shortened: as §1
# [35] = target: Gal(b1-4)GlcNAc(b1-2)[Gal(b1-4)GlcNAc(b1-4)]Man(a1-3)[GlcNAc(b1-4)][Gal(b1-4)GlcNAc(b1-2)[Gal(b1-4)GlcNAc(b1-6)]Man(a1-6)]Man(b1-4)GlcNAc(b1-4)GlcNAc
# Procedure, shortened: as §1
# [36] = target: Gal(b1-4)GlcNAc(b1-2)[Gal(b1-4)GlcNAc(b1-6)]Man(a1-6)[Gal(b1-4)GlcNAc(b1-2)Man(a1-3)]Man(b1-4)GlcNAc(b1-4)GlcNAc
# Procedure, shortened: as §1
# [37] = target: Gal(b1-4)GlcNAc(b1-2)[Gal(b1-4)GlcNAc(b1-6)]Man(a1-6)[Gal(b1-4)GlcNAc(b1-2)Man(a1-3)]Man(b1-4)GlcNAc(b1-4)[Fuc(a1-6)]GlcNAc
# Procedure, shortened: as §1
# [38] = target: Gal(b1-4)GlcNAc(b1-2)[Gal(b1-4)GlcNAc(b1-6)]Man(a1-6)[GlcNAc(b1-4)][Gal(b1-4)GlcNAc(b1-2)Man(a1-3)]Man(b1-4)GlcNAc(b1-4)GlcNAc
# Procedure, shortened: as §1
# [39] = target: Gal(b1-4)GlcNAc(b1-2)[Gal(b1-4)GlcNAc(b1-6)]Man(a1-6)[GlcNAc(b1-4)][Gal(b1-4)GlcNAc(b1-2)[Gal(b1-4)GlcNAc(b1-4)]Man(a1-3)]Man(b1-4)GlcNAc(b1-4)[Fuc(a1-6)]GlcNAc
# Procedure, shortened: as §1
# [40] = target: Gal(b1-4)GlcNAc(b1-3)Gal(b1-3)GalNAc
# Procedure, shortened: as §1
# [41] = target: Gal(b1-4)GlcNAc(b1-3)Gal(b1-3)GlcNAc
# Procedure, shortened: as §1
# [42] = target: Gal(b1-4)GlcNAc(b1-3)Gal(b1-4)Glc
# Procedure, shortened: as §1
# [43] = target: Gal(b1-4)GlcNAc(b1-3)Gal(b1-4)GlcNAc
# Procedure, shortened: as §1
# [44] = target: Gal(b1-4)GlcNAc(b1-3)Gal(b1-4)GlcNAc(b1-2)Man(a1-3)[Gal(b1-4)GlcNAc(b1-3)Gal(b1-4)GlcNAc(b1-2)Man(a1-6)]Man(b1-4)GlcNAc(b1-4)GlcNAc
# Procedure, shortened: as §1
# [45] = target: Gal(b1-4)GlcNAc(b1-3)Gal(b1-4)GlcNAc(b1-2)Man(a1-3)[Gal(b1-4)GlcNAc(b1-3)Gal(b1-4)GlcNAc(b1-2)Man(a1-6)]Man(b1-4)GlcNAc(b1-4)[Fuc(a1-6)]GlcNAc
# Procedure, shortened: as §1
binder,measurement,setting,value
B1,glycan array binding signal (z-score),[1],-0.308
same,glycan array binding signal (z-score),[2],-0.356
same,glycan array binding signal (z-score),[3],-0.262
same,glycan array binding signal (z-score),[4],-0.313
same,glycan array binding signal (z-score),[5],-0.317
same,glycan array binding signal (z-score),[6],-0.393
same,glycan array binding signal (z-score),[7],-0.355
same,glycan array binding signal (z-score),[8],-0.37
same,glycan array binding signal (z-score),[9],-0.028
same,glycan array binding signal (z-score),[10],-0.312
same,glycan array binding signal (z-score),[11],-0.302
same,glycan array binding signal (z-score),[12],-0.284
same,glycan array binding signal (z-score),[13],-0.361
same,glycan array binding signal (z-score),[14],0.143
same,glycan array binding signal (z-score),[15],-0.153
same,glycan array binding signal (z-score),[16],-0.325
same,glycan array binding signal (z-score),[17],-0.293
same,glycan array binding signal (z-score),[18],-0.065
same,glycan array binding signal (z-score),[19],-0.332
same,glycan array binding signal (z-score),[20],-0.257
same,glycan array binding signal (z-score),[21],0.039
same,glycan array binding signal (z-score),[22],-0.342
same,glycan array binding signal (z-score),[23],-0.274
same,glycan array binding signal (z-score),[24],-0.225
same,glycan array binding signal (z-score),[25],0.13
same,glycan array binding signal (z-score),[26],-0.321
same,glycan array binding signal (z-score),[27],0.15
same,glycan array binding signal (z-score),[28],-0.323
same,glycan array binding signal (z-score),[29],-0.334
same,glycan array binding signal (z-score),[30],-0.347
same,glycan array binding signal (z-score),[31],-0.392
same,glycan array binding signal (z-score),[32],-0.362
same,glycan array binding signal (z-score),[33],-0.311
same,glycan array binding signal (z-score),[34],-0.332
same,glycan array binding signal (z-score),[35],-0.283
same,glycan array binding signal (z-score),[36],-0.211
same,glycan array binding signal (z-score),[37],-0.307
same,glycan array binding signal (z-score),[38],0.095
same,glycan array binding signal (z-score),[39],-0.362
same,glycan array binding signal (z-score),[40],-0.35
same,glycan array binding signal (z-score),[41],-0.255
same,glycan array binding signal (z-score),[42],-0.355
same,glycan array binding signal (z-score),[43],-0.235
same,glycan array binding signal (z-score),[44],-0.307
same,glycan array binding signal (z-score),[45],-0.164
